# Among all 310,000 compounds or so, about 14,000 (4.5%) showed an effect of 50% or more. Effects have a minus sign here. The list shows a part of the results.
# Target: human ether-à-go-go-related gene (hERG) potassium channel (human, UniProt Q12809)
# Test: primary screen, population patch clamp on CHO cells stably expressing hERG
# 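Also: peak tail current of the secondary pulse compared with the same well before compound.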
# Chain of human ether-à-go-go-related gene (hERG) potassium channel (Q12809 whole entry, looked up): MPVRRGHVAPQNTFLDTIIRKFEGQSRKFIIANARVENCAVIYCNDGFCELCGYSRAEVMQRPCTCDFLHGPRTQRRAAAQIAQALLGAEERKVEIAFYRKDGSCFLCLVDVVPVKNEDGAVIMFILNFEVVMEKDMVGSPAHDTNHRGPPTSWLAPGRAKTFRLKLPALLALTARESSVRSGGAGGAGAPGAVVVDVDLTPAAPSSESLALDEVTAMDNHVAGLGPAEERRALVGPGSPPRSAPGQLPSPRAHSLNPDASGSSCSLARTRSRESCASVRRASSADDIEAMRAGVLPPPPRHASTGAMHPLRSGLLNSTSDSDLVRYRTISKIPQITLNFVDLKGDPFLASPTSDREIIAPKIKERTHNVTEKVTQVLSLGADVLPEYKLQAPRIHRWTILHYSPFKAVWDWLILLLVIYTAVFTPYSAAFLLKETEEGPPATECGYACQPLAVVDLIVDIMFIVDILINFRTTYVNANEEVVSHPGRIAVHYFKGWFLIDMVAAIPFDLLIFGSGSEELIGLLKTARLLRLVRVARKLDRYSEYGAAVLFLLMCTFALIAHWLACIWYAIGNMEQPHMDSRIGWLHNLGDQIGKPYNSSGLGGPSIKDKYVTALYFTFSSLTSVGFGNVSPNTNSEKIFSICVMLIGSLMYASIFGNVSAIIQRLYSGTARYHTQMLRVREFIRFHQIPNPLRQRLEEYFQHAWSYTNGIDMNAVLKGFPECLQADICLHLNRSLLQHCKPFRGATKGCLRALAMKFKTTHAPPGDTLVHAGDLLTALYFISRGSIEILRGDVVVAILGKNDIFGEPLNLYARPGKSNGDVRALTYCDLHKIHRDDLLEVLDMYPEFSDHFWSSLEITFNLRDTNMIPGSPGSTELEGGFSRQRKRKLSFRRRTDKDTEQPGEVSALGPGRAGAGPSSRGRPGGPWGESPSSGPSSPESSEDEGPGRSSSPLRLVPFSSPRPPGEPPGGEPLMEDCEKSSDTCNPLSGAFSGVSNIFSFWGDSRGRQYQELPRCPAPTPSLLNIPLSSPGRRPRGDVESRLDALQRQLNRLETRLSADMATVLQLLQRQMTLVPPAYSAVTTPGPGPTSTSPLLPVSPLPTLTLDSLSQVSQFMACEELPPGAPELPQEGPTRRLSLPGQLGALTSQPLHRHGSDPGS
row,Structure (SMILES),"hERG current change (%, negative = inhibition) at 10uM [%]"
1,COc1ccc(OCc2cccc(C(=O)Nc3ccc(CN4CCCCC4)cc3)c2)cc1,-72.8
2,Cl.FC(F)(F)c1ccc(CN2CCNCC2)cc1,0.155
3,CCOCCCN1C(=O)CN(C2CCCCCC2)C(=O)C1c1ccc(OC)cc1 (centres unmarked),-9.01
4,COC(=O)c1cc(C(=O)OC)n(Cc2ccc(Br)cc2)n1,-40.6
5,Cc1noc(NS(=O)(=O)c2ccc(N/C=C/C(=O)c3cccnc3)cc2)c1C,-0.605
6,CCOC(=O)c1c(C(C)(C)C)oc2ccc(O)cc12,1.69
7,Cc1cc(C)c(S(=O)(=O)NC2CC3CCC2C3)c(C)c1 (centres unmarked),-8.7
8,Cc1cc(NC(=O)CSc2nc3cc(C)c(C)cc3cc2C)no1,14.5
9,COc1ccc(S(=O)(=O)N2CCCC(C(=O)N3CCOCC3)C2)cc1Cl (centres unmarked),-14
10,Cn1c2ccccc2c2cnn(CC(=O)N3CCC4(CC3)OCCO4)c(=O)c21,-22.2
11,CCCN(CCO)Cc1ccc(Cl)c(Cl)c1,-12.9
12,Cc1cccc(OCCCC(=O)NC(C)C)c1,-2.02
13,CC(=O)N1CCC2(CC1)C/C(=N\NC(=S)Nc1ccccc1C)c1cc(O)ccc1O2,-61.1
14,Brc1ccc(-c2nn3c(-c4ccccn4)nnc3s2)o1,-19.4
15,O=c1[nH]c2c(c3c1CCCC3)CCCC2,7.88
16,Cc1cc(C)cc(NC(=O)NN2C(C)CCCC2C)c1 (centres unmarked),-14.3
17,Cc1csc(N/N=C/c2ccc(O)c([N+](=O)[O-])c2)n1,-19.1
18,C[C@H](Cc1ccccc1)Nc1ncnc2c1ncn2[C@@H]1O[C@H](CO)[C@@H](O)[C@H]1O,14.9
19,CN1C(=O)C(=Cc2coc3ccccc3c2=O)C(=O)N(C)C1=O,2.32

row,Structure (SMILES),"hERG current change (%, negative = inhibition) at 10uM [%]"
1,COc1ccc2c(c1OC)C(=O)N1N=C(c3ccc(-c4ccccc4)cc3)CC21 (centres unmarked),4.68
2,Cl.NCCc1nnc(SCc2ccccc2Cl)o1,20.3
3,N#CC1=C(N)Oc2cc(N)ccc2C1c1cccnc1 (centres unmarked),-3.76
4,O=C(NNC(=O)C1CCN(Cc2ccc(F)cc2Cl)CC1)Nc1ccc([N+](=O)[O-])cc1,-26.4
5,O=C(CNC(=O)c1ccc(Br)cc1)NCc1cccnc1,2.22
6,CCOC(=O)C1CCCN(C(=O)c2cccc(S(=O)(=O)N(C)c3c(C)n(C)n(-c4ccccc4)c3=O)c2)C1 (centres unmarked),-19.7
7,O=C(c1ccco1)N1CCN(C(=O)c2cnn(-c3cccc(F)c3)c2C2CCNCC2)CC1,18.7
8,COc1ccccc1/C=C/c1ccc2cccc(O)c2n1,11.2
9,COc1cccc(-n2nc(C(=O)N3CCN(Cc4ccccc4)CC3)c3ccccc3c2=O)c1,-50.3
10,COc1ccc(CCNC(=O)C2CCN(C(=O)c3ccccc3C)CC2)cc1,22.3
11,CCO[C@H]1OC(C(=O)N2CCN(Cc3ccc4c(c3)OCO4)CC2)=C[C@@H](c2ccccc2)[C@@H]1CCCO,-17.3
12,O=C(NCCCN1CCOCC1)c1cc(-c2ccc(Br)cc2)on1,-58.6
13,COc1ccccc1S(=O)(=O)Cc1ccc(C(=O)NCc2ccccc2)o1,-3.37
14,Cc1c(C(=O)NC2=NCCS2)oc2ccccc12,-25.4
15,COc1ccccc1-c1cc(C(=O)NCc2cccs2)no1,-0.487
16,O=C(CSc1nnc(CNC(=O)c2ccc(F)cc2)o1)NCC1CCCO1 (centres unmarked),5.71
17,COCCCN1CN=C(Nc2nc3ccccc3o2)NC1,5.82
18,COc1ccccc1C(=O)Nc1nnc(C)s1,0.34
19,CCN1CCN(c2ccc(NC(=O)c3cccc4ncccc34)cc2)CC1,-5

row,Structure (SMILES),"hERG current change (%, negative = inhibition) at 10uM [%]"
1,CCOc1cc(C(=O)NCCCNC(=O)c2cc(OCC)c(OCC)c(OCC)c2)cc(OCC)c1OCC,22.3
2,CN(CC(=O)Nc1cccc(F)c1)C(=O)c1cn(-c2ccccc2)nc1-c1cccs1,9.6
3,COc1ccc(OC)c(S(=O)(=O)N2Cc3ccccc3CC2C(=O)Nc2nccs2)c1 (centres unmarked),22.2
4,Cc1cccc(NS(=O)(=O)c2c(C)noc2C)c1,4.75
5,Cc1ccc2[nH]c3c(c2c1)CN(C(=O)CN(C)CC1OCCO1)CC3,12.7
6,COc1cc2c(cc1OC)CN(Cc1nc3ccsc3c(=O)[nH]1)CC2,-11.6
7,C/C(=N\Nc1ccc([N+](=O)[O-])cc1[N+](=O)[O-])c1cccnc1,-11.7
8,O=C(Nc1cccn(Cc2c(Cl)cccc2Cl)c1=O)c1ccc(Cl)cc1,-0.226
9,C[C@H]1Oc2ccccc2C(=O)C1C(=O)c1ccccc1 (some centres unmarked),-9.41
10,COc1ccccc1N1CCN(C(=O)CCNS(=O)(=O)c2ccc(Br)s2)CC1,-31.3
11,COP(=O)(OC)c1nc(-c2ccc(C)cc2)oc1N1CCCCC1,-10.2
12,CCOC(=O)C1=C(N)Oc2ccc3ccccc3c2C1c1cccnc1 (centres unmarked),0.98
13,CN(C)CCOCCOc1ccc(Cl)c2ccccc12.O=C(O)C(=O)O,-44.5
14,CCCOc1ccccc1C1C(C(=O)OC)=CN(C(C)C)C=C1C(=O)OC,-37.2
15,CCCN1Cc2cccc(C(=O)NC(CC(=O)OCC)c3ccc(OC(C)C)cc3)c2C1=O (centres unmarked),-37.6
16,COc1ccc(OCC(=O)NNC(=O)C(=O)Nc2cc(OC)ccc2OC)cc1,12.8
17,CC1Cc2ccccc2N1C(=O)CSc1nnc(-c2ccccc2)c(-c2ccccc2)n1 (centres unmarked),-3.48
18,CCOC(=O)c1cnn(-c2cc(C)nc3c(-c4ccccc4)c(C)nn23)c1N,8.63

# From article PMC4336329 (PLoS ONE, 2015)
